Screen size: about 330,000 compounds; about 4,200 (1.3%) were called active. The shares of active, inactive and inconclusive entries below differ from those in the screen. Calls follow the shape of the dose curve; as a rule, active = well fitted activation curve with a large enough effect; inconclusive = small, poorly fitted or top-dose-only effect; inactive = no such curve, though single readings can be large or run the other way. Where the call is inconclusive, the potency comes from a doubtful curve fit.
test: qHTS screen for small molecules that induce genotoxicity in human embryonic kidney (HEK293T) cells expressing luciferase-tagged ELG1; settings: HEK293T ELG1-luciferase reporter, luminescence, 16 h; series mostly up to 46 µM; also: nearly all actives have a fitted effect of over 60% in size
Method in brief: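 After overnight (16 hr) compound treatment at 37 °C, ELG1-luciferase HEK293T cells were lysed with ONE-Glo; luminescence quantified 30 min later at room temperature.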
Potency is read from the fitted curve at half-maximal effect; tags tell the direction and shape of the fitted curve.

Question: With `Nc1cnn(Cc2ccc(F)cc2)c1` as the compound, how does the Potency read?
Answer: The Potency was “inactive”.

Question: With `CCS(=O)(=O)c1ccc2oc(SCC(=O)NC3CCCC(C)C3C)nc2c1` (centres undefined) as the compound, how does the Potency read?
Answer: The Potency was “inactive”.

Question: Which Potency does the source give for `CCCOc1ccc(-c2csc(N)n2)cc1[N+](=O)[O-]` here?
Answer: The Potency was inconclusive: 13 µM [activator, partial curve, poor fit].

Question: Which Potency does the source give for `COc1ccc(C(c2sc3ncnn3c2O)N2CCN(c3ccccc3F)CC2)cc1OC` (centres undefined) here?
Answer: Its Potency is inconclusive: 16.4 µM [activator, single point].

Question: For `O=C(NCCc1c[nH]c2ccccc12)c1ccc(F)cc1F`, which Potency is on record?
Answer: The Potency was inconclusive: 14.6 µM [activator, single point].

Question: Which Potency does the source give for `C[C@H](CO)N1C[C@H](C)[C@@H](CN(C)S(=O)(=O)c2ccccc2)Oc2ccc(NS(=O)(=O)c3cccs3)cc2C1=O` here?
Answer: Its Potency is “inactive”.

Question: Which Potency does the source give for `O=C(NCCS(=O)(=O)N1CCN(c2ccccc2)CC1)C1CC1` here?
Answer: Its Potency is “inactive”.

Question: For `Nc1c2c(nc3ccc(Br)cc13)N(Cc1ccccc1)CC2`, which Potency is on record?
Answer: The Potency was “inactive”.

Question: For `Cc1cc(C)c(NC(=O)Nc2ccc3c(c2)OCO3)c(C)c1`, which Potency is on record?
Answer: Its Potency is inconclusive: 16.4 µM [activator, partial curve, poor fit].

Question: Which Potency does the source give for `CCOc1c(Cl)cc(CNc2ccc(N3CCCC3)cc2)cc1OC` here?
Answer: The Potency was inconclusive: 20.6 µM [activator, single point].

Question: For `Cc1n[nH]c(=O)c2c(NC(=O)CSc3nc4ccccc4c(=O)n3-c3ccc(OC(F)F)cc3)oc(C)c12`, which Potency is on record?
Answer: Its Potency is inconclusive: 11.6 µM [activator, partial curve, poor fit].

Question: Which Potency does the source give for `Cc1cc(C(=O)Nc2sc3c(c2C#N)CCC(C)C3)cs1` (centres undefined) here?
Answer: The Potency was active: 4.61 µM.

Question: With `COc1ccc(NC(=O)CSc2ccccc2)c([N+](=O)[O-])c1` as the compound, how does the Potency read?
Answer: The Potency was inconclusive: 6.51 µM [activator, single point].

Question: For `CCn1c(=O)cc(OCC(=O)NCCCN2CCCC2=O)c2ccccc21`, which Potency is on record?
Answer: Its Potency is inconclusive: 18.3 µM [activator, single point].

Question: For `CCc1c(C)sc(NC(=O)c2ccc(Br)o2)c1C(=O)OC`, which Potency is on record?
Answer: Its Potency is “inactive”.

Question: For `Cc1cccc(CCN2CCN=C2N(C)C)c1`, which Potency is on record?
Answer: The Potency was “inactive”.

Question: Which Potency does the source give for `CC(C)c1cccc(C(C)C)c1NC(=O)CCN1C(=O)NC2(CCCC2)C1=O` here?
Answer: Its Potency is “inactive”.

Question: Which Potency does the source give for `O=Cc1ccc(C(=O)OCC(=O)Nc2ccc(F)cc2F)cc1` here?
Answer: Its Potency is “inactive”.

Question: Which Potency does the source give for `Clc1cnc(N/N=C/c2cccs2)c(Cl)c1` here?
Answer: The Potency was inconclusive: 5.8 µM [activator, partial curve, poor fit].

Question: With `Cc1cc(CN(C)C(=O)c2cc(COc3ccc(C)c(C)c3)on2)on1` as the compound, how does the Potency read?
Answer: Its Potency is active: 16.4 µM.

Question: For `COc1cccc(CNC(=O)Cn2ncc3c(=O)oc4ccccc4c32)c1`, which Potency is on record?
Answer: The Potency was “inactive”.

Question: Which Potency does the source give for `COC(=O)c1ccc2nc(-c3cccc(N)c3)cn2c1` here?
Answer: Its Potency is inconclusive: 0.517 µM [activator, full curve].

Question: For `CCOc1ccc(-n2c(SCC(=O)Nc3nccs3)nc3c(c2=O)SCC3)cc1`, which Potency is on record?
Answer: The Potency was inconclusive: 18.4 µM [activator, partial curve].

Question: For `O=C(COc1ccccc1Br)N1CCN(C(=O)c2ccco2)CC1`, which Potency is on record?
Answer: Its Potency is “inactive”.

Question: Which Potency does the source give for `Cc1cc(/C=C2\SC(=S)N(Cc3ccco3)C2=O)c(C)n1-c1cccnc1` here?
Answer: Its Potency is inconclusive: 13 µM [activator, partial curve].

Question: Which Potency does the source give for `COc1ccc(-n2nc([N+](=O)[O-])c(=NCc3ccco3)n2O)cc1` here?
Answer: Its Potency is inconclusive: 4.11 µM [activator, full curve, poor fit].

Question: With `O=C(NNC(=O)c1ccc(F)cc1)c1ccncc1` as the compound, how does the Potency read?
Answer: Its Potency is “inactive”.

Question: Which Potency does the source give for `CCCCNC(=O)CCn1c(=S)[nH]c2cc3c(cc2c1=O)OCO3` here?
Answer: Its Potency is inconclusive: 29.1 µM [activator, partial curve, poor fit].

Question: Which Potency does the source give for `O=C(NCCCNC(=O)c1ccco1)c1ccc(Cl)cc1` here?
Answer: Its Potency is inconclusive: 11.6 µM [activator, partial curve].

Question: Which Potency does the source give for `Nc1ccccc1-c1nc2ccccc2s1` here?
Answer: The Potency was inconclusive: 5.17 µM [activator, partial curve, poor fit].

Question: Which Potency does the source give for `COc1ccc(CNC(=O)CCCOc2cc(=O)n(C)c3ccccc23)cc1` here?
Answer: The Potency was inconclusive: 25.9 µM [activator, single point].

Question: For `Cc1cnc(NC(=O)COc2ccc3c(c2)CCC3)s1`, which Potency is on record?
Answer: Its Potency is active: 0.651 µM.

Question: For `Cc1ccc(NC2=C(Cl)C(=O)c3ccccc3C2=O)cc1`, which Potency is on record?
Answer: Its Potency is inconclusive: 4.61 µM [activator, single point].

Question: With `COc1ccc(C(=O)Nc2ccc(NC(=O)C3CCCCC3)nc2)cc1` as the compound, how does the Potency read?
Answer: The Potency was inconclusive: 18.3 µM [activator, partial curve, poor fit].

Question: Which Potency does the source give for `O=C(O)c1ccccc1SCc1csc(-c2ccccc2)n1` here?
Answer: Its Potency is inconclusive: 18.3 µM [activator, partial curve, poor fit].

Question: With `COc1ccc2c(c1)CC/C(=C\c1ccc(C)o1)C2=O` as the compound, how does the Potency read?
Answer: Its Potency is inconclusive: 3.66 µM [activator, full curve].

Question: With `O=C(NCc1nc2ccccc2[nH]1)C1=C[C@@H](c2ccc(Br)cc2)C[C@@H](OCc2ccc(CO)cc2)O1` as the compound, how does the Potency read?
Answer: Its Potency is “inactive”.

Question: With `CCCCN(C(=O)CSCc1ccc(C)cc1)c1c(N)n(CCC)c(=O)[nH]c1=O` as the compound, how does the Potency read?
Answer: Its Potency is “inactive”.

Question: Which Potency does the source give for `Cc1cc2ncc(-c3ccccc3)nc2cc1C` here?
Answer: Its Potency is active: 1.64 µM.

Question: With `CN(C(=O)c1cccnc1)c1nnc(-c2ccccn2)s1` as the compound, how does the Potency read?
Answer: The Potency was inconclusive: 11.2 µM [activator, partial curve, poor fit].

Question: For `O=c1cc(-c2ccc3c(c2)OCCO3)oc2ccc(Cl)cc12`, which Potency is on record?
Answer: Its Potency is active: 2.91 µM.

Question: For `O=Cc1ccc(OCc2cn3ccccc3n2)cc1`, which Potency is on record?
Answer: Its Potency is inconclusive: 14.6 µM [activator, partial curve].

Question: Which Potency does the source give for `CCOC(=O)c1cnn(-c2ccc(C(F)(F)F)cn2)c1N` here?
Answer: The Potency was inconclusive: 10.3 µM [activator, partial curve, poor fit].

Question: Which Potency does the source give for `Nc1nc(N)c(N=O)c(OCC2CCCCC2)n1` here?
Answer: The Potency was active: 18.3 µM.

Question: For `Cc1cccc(-n2ncc3c(NCc4ccco4)ncnc32)c1`, which Potency is on record?
Answer: Its Potency is inconclusive: 14.6 µM [activator, partial curve, poor fit].

Question: With `CCCOC1CCCN(C(=O)CCc2nnc(-c3ccc4c(c3)OCO4)o2)C1` (centres undefined) as the compound, how does the Potency read?
Answer: Its Potency is inconclusive: 18.3 µM [activator, single point].

Question: For `COc1ccccc1CCN1CCCC(CN(C)C(=O)CCC(N)=O)C1` (centres undefined), which Potency is on record?
Answer: Its Potency is “inactive”.

Question: With `CC(=O)N(C)c1ccc(NC(=O)C(Sc2ccccc2)c2ccccc2)cc1` (centres undefined) as the compound, how does the Potency read?
Answer: Its Potency is inconclusive: 18.3 µM [activator, partial curve, poor fit].

Question: Which Potency does the source give for `Cc1ccc2nc(-c3ccc(S(=O)(=O)N4CCOCC4)cc3)cn2c1` here?
Answer: The Potency was active: 23.1 µM.

Question: For `COc1ccc(-c2nc(SCC(=O)N(CC(C)C)c3c(N)n(Cc4ccccc4)c(=O)[nH]c3=O)n[nH]2)cc1`, which Potency is on record?
Answer: The Potency was “inactive”.

Question: For `Cc1c(Cl)cccc1NC(=S)N=Nc1c(O)n(CN2CCOCC2)c2ccccc12`, which Potency is on record?
Answer: Its Potency is inconclusive: 29.1 µM [activator, single point].

Question: Which Potency does the source give for `Cn1c(=NC(=O)CCl)sc2ccccc21` here?
Answer: The Potency was inconclusive: 23.1 µM [activator, partial curve, poor fit].

Question: Which Potency does the source give for `CC(C)c1ccc(/C=N/NC(=O)c2ccccn2)cc1` here?
Answer: The Potency was inconclusive: 0.82 µM [activator, partial curve].

Question: With `Cc1ccc(O)c(N/C=C/C(=O)c2ccc(F)cc2)c1` as the compound, how does the Potency read?
Answer: The Potency was active: 20.6 µM.

Question: With `Cn1ccc(C(=O)NC(=S)Nc2ccc([N+](=O)[O-])cc2O)n1` as the compound, how does the Potency read?
Answer: Its Potency is active: 11.6 µM.

Question: For `CCNc1nc(Oc2ccc(=O)n(C)n2)nc(N2CCOCC2)n1`, which Potency is on record?
Answer: Its Potency is inconclusive: 14.6 µM [activator, partial curve].

Question: Which Potency does the source give for `N#Cc1ccsc1NC(=O)CN1C(=O)NC2(CCCC2)C1=O` here?
Answer: Its Potency is inconclusive: 2.91 µM [activator, partial curve, poor fit].

Question: With `CC(=O)c1ccc(N2CCN(C(=O)c3ccco3)CC2)c(F)c1` as the compound, how does the Potency read?
Answer: The Potency was inconclusive: 16.4 µM [activator, partial curve, poor fit].

Question: With `COc1ccc(-c2cc(C(=O)NN3CCOCC3)c3ccccc3n2)cc1OC` as the compound, how does the Potency read?
Answer: Its Potency is “inactive”.

Question: For `Cc1nn(C)c(C)c1N=Cc1c(O)ccc2ccccc12`, which Potency is on record?
Answer: Its Potency is “inactive”.

Question: With `COc1ccccc1CNC(=O)c1ccc(NS(=O)(=O)c2c(C)noc2C)cc1` as the compound, how does the Potency read?
Answer: Its Potency is “inactive”.

Question: Which Potency does the source give for `Cc1ccccc1OCC(=O)Nc1ccccc1-c1ccccc1` here?
Answer: The Potency was inconclusive: 7.31 µM [activator, partial curve].

Question: For `CCOc1ccc(-n2c(C)nc(O)c2N=Nc2ccccc2)cc1`, which Potency is on record?
Answer: Its Potency is “inactive”.

Question: Which Potency does the source give for `Cc1ccc(S(=O)(=O)Oc2ccc(C)cc2/C=N/N=C2\NC(=O)C(C)S2)cc1` (centres undefined) here?
Answer: Its Potency is inconclusive: 13 µM [activator, partial curve, poor fit].

Question: For `O=C(COC(=O)c1ccc(OC(F)F)cc1)NC(=O)NC1CCCC1`, which Potency is on record?
Answer: Its Potency is “inactive”.

Question: With `CN(C)/C=C/C(=O)c1cnc(-c2ccccc2)s1` as the compound, how does the Potency read?
Answer: Its Potency is inconclusive: 6.51 µM [activator, partial curve].

Question: With `C=CCn1cnc2c(nnn2-c2ccc(C)c(C)c2)c1=O` as the compound, how does the Potency read?
Answer: Its Potency is inconclusive: 9.2 µM [activator, partial curve].

Question: With `Cc1ccc(-n2c(C)csc2=N)cc1` as the compound, how does the Potency read?
Answer: Its Potency is active: 5.17 µM.

Question: With `Cc1nn(-c2nc3ccccc3s2)c(N)c1-c1ccc(Cl)cc1` as the compound, how does the Potency read?
Answer: Its Potency is inconclusive: 16.4 µM [activator, partial curve, poor fit].

Question: With `Clc1ccc(OCc2nc(-c3ccncc3)no2)c(Br)c1` as the compound, how does the Potency read?
Answer: The Potency was inconclusive: 2.91 µM [activator, full curve].

Question: With `CCn1ncc(/C=N\NC(=O)COc2ccccc2)c1C` as the compound, how does the Potency read?
Answer: The Potency was “inactive”.

Question: With `O/N=C/c1ccnc(SCc2ccccc2)n1` as the compound, how does the Potency read?
Answer: Its Potency is inconclusive: 18.3 µM [activator, partial curve, poor fit].

Question: Which Potency does the source give for `O=[N+]([O-])c1ccc(O)c(/C=N/Nc2ccccc2Cl)c1` here?
Answer: Its Potency is inconclusive: 2.06 µM [activator, partial curve].

Question: With `O=C1c2cccc3c([N+](=O)[O-])ccc(c23)C(=O)N1CCc1ccccn1` as the compound, how does the Potency read?
Answer: Its Potency is inconclusive: 23.1 µM [activator, partial curve, poor fit].
